# Experimental data as given in publication PMC6718429.
# Sequences of proteins named here, by UniProt entry; tags and fusion partners are left off.
# UniProt Q8VDZ4: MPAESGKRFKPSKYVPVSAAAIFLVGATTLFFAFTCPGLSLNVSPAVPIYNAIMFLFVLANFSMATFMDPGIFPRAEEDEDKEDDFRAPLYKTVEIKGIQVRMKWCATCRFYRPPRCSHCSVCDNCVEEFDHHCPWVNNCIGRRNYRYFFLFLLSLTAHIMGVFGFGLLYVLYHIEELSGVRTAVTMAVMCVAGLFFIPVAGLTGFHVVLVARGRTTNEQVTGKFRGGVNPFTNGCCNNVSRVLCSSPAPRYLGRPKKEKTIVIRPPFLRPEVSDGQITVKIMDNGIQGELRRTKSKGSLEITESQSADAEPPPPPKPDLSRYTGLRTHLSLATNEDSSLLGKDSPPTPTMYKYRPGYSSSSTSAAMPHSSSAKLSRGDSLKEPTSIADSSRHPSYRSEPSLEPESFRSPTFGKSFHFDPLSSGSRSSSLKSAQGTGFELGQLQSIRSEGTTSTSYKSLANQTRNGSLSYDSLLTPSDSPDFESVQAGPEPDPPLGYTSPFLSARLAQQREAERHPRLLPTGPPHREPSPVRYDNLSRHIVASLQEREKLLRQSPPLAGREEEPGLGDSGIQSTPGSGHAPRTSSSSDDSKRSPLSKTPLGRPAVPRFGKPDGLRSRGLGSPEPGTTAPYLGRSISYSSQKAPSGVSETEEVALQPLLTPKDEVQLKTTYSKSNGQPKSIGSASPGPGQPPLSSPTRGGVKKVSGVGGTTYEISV
# UniProt P59268: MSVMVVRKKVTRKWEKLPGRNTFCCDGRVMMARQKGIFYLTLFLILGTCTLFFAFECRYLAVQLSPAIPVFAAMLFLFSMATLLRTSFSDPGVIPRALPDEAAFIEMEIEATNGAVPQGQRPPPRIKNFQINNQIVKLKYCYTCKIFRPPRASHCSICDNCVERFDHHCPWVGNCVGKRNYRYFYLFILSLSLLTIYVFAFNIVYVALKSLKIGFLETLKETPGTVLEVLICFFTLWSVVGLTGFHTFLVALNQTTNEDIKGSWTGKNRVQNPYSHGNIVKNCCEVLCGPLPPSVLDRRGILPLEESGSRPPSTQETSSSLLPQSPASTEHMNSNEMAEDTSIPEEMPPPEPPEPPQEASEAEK
# UniProt Q64264: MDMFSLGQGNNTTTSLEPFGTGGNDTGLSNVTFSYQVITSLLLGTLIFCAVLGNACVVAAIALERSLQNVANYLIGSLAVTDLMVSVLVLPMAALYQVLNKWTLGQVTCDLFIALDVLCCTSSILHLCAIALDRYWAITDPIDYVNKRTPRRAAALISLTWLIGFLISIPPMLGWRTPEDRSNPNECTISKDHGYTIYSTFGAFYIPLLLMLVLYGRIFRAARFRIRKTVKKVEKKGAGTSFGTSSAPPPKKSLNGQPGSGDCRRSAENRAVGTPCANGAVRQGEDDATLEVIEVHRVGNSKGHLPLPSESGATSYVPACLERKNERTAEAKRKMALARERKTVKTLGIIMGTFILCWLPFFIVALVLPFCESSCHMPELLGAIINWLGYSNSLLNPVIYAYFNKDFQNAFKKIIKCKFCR
# Results are given in words; binding and its absence hold for the method and conditions named. In cells and extracts the contact can be indirect. Some entries that bind do so weakly or less than the wild type. For part of these data: Where a sequence is shown, tags or fusion partners need not be part of it.
# Key:
# [1] = target: T1, GFP-tagged ZDHHC21 (mouse) (UniProt Q9D270); assay: condition: only cells that expressed only one of the proteins were mixed prior to lysis ("mix" samples); co-IP; "mix" control: cells that expressed only one of the proteins (HA-5-HT1AR or GFP-tagged ZDHHC) mixed prior to lysis; IP with anti-GFP antibody, western blot with anti-HA antibody
# T1 sequence: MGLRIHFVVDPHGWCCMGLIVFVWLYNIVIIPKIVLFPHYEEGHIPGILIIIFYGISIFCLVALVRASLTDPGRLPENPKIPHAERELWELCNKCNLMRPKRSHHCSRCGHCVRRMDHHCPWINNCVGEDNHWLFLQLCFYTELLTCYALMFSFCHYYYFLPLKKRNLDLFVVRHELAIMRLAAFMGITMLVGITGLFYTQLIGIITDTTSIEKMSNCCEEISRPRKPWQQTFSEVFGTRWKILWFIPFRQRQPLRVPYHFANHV
# [2] = target: GFP-tagged ZDHHC5 (mouse) (UniProt Q8VDZ4); assay: as above
# [3] = target: GFP-tagged ZDHHC9 (mouse) (UniProt P59268); assay: as above
# [4] = target: T1, GFP-tagged ZDHHC21 (mouse); assay: co-IP; N1E-115 cells co-expressing HA-tagged 5-HT1AR and GFP-tagged ZDHHC; IP with anti-GFP antibody, western blot with anti-HA antibody
# [5] = target: GFP-tagged ZDHHC5 (mouse) (UniProt Q8VDZ4); assay: as above
# [6] = target: GFP-tagged ZDHHC9 (mouse) (UniProt P59268); assay: as above
substance,measurement,setting,value
HA-tagged serotonin 1A receptor (5-HT1AR) (from UniProt Q64264 1-421),binding,[1],no binding
same,binding,[2],no binding
same,binding,[3],no binding
same,binding,[4],binds
same,binding,[5],binds
same,binding,[6],binds
